The values that follow come from the RNAGym collection of RNA variant scans (doi:10.1093/nar/gkz1192).

Read counts are not given, so values of variants with three or more changes are uncertain.

B1: CPEB3 Ribozyme (parent)
chain: UAACAGGGGGCCACAGCAGAAGCGUUCACGUCGCAGCCCCUGUCAGAUUCUGGUGAAUCUGCGAAUUCUGCUGUAUAUCUC

Variants of B1 are the subject of this data set. As to the kind of experiment: self-cleavage, relative activity (ratio to wild type); higher = more cleavage; in vitro, sequencing. The procedure, abridged: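 Relative activity was defined as the cleaved/total read fraction for a variant divided by the same fraction for the unmutated ribozyme. CPEB3 self-cleaving ribozyme libraries were made by rounds of error-prone PCR, barcoded, and transcribed in vitro with T7 RNA polymerase for 5 hours at 37°C, and cleavage ran through transcription plus a 15 min DNase I step before EDTA. Illumina sequencing of template-switched reverse transcripts gave the reads, and DNA sequencing mapped the barcodes. Averages come from three batches, using variants with at least 5 reads.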
With UAACAGGGGGCUACAGCAGAAGCGGUCACGUCGCAGUCCCUGUCAGAUUCUGGUGAAUCUGCGUAUUCUGCUGUAUAUCUC, the self-cleavage came to 0.13.

In the case of UAACAGGGGGCUACAGCAGAAGCGAUCACGUCGCAGCCCCUGUCAGGUUCUGAUGAAUCUGCGAAUUCUGCUGUGUAUCUC, the self-cleavage came to 0.2.

With UAACAGGGGGCUACAGCAGAAGCGUUCACGUCACAGCCCCUGUCAGAUUCUGGUGAAUCUGCGAAUUCGGCUAUAUAUCUC, the self-cleavage is 0.1.

Consider UAACAGGGGGCCCCAGCGGAAGCGUUCACGUCGCAGCCCCUGCCAGAUUCUGGUGAAUCUGCGAAUUCUGCUGUAUAGCUC, for which the self-cleavage is 0.39.

UAACAGGGGGCUACAGCAGAAGCAUUCACGUCGCAGCCCCGGUCAGAUUCUGGUGAAUCUGCGAAUUCUGCCGUAUACCUC: the self-cleavage was 0.08.

With UAACAGGGGGCUACAGCAGAAGCGUUCACGUCGCAGCCCCAGUUAGAUUCUGGUGACUCUGCGAAUUCUGCUGUAAAUCAC, the self-cleavage came to 0.02.

Regarding UAACAGGGGGCUACAGCAGAAGCGUUCACGCCGCAGCCCCUGUCAGAUUCUAGUGAAUCUGCGAAUUCUGCCGUAUAUCUC, the self-cleavage was 0.49.

In the case of UAACAGGGGGCUACAGCAGAAGCGUUCACGUCGCAGCCCCUGUCAGAUACUGGUGAAUCUGCGAAUUCUGCUGUAUAACUC, the self-cleavage was found to be 0.89.

As for UAACAGGGGGCUACAGCAGAAGCGUUCACGUCGCAGCCCCCGUCGGUCUCUGGUGAAUCUGCGAAUUCUGCUGUAUAACUC, the self-cleavage was found to be 0.09.

Turning to UAACAGGGGGCUACAGCAGAAGCGUCCACGUCGCAGCCCCUGUCGGAUUCUGGUGAAUCUGCGAAUUCUGCUGUAUAUCUC, the self-cleavage came to 0.36.

For UAACAGGGGGCCCCAGCGGAAGCGUUCACGUCGCAGCCCCCGUCAGAUUCUGGUGGAUCUGCGAAUCCUGCUGUAUAUCUC, the self-cleavage turned out to be 0.42.

Turning to UAACAGGGGGCUACAGCAGAAGCGUUCACGCCGCAGCCCCUGUAAGAUUCUGGUGAAUCCGCGAAUACUGCUGUAUAUCUC, the self-cleavage is 0.11.

With UAACAGGGGGCUACAGCAGAAGCGUUCACGUCGCAGCCCCUGUCAGAAUCUGGUGAAUCUGCGAAUUCUGCUGCAUAUCUC, the self-cleavage is 1.12.

For the variant UAACAGGGGGCUACAGCAGAAGCGUUCACGUCGCAGCCCCUGUCAGAUUCCGGUGAAUCUGCGAUUUCUGCUGUAUAUCUC, the self-cleavage is 0.26.

With UAACAGGGGGCUACAGCAGAAGCGUUCACGUCGCAGCCCCUGUCAGAUUCUGGCGAAUCUGCGAAUUCUGCAGUAUAUCUC, the self-cleavage stood at 1.27.

UAACAGGGGGCCCCGUCAGAAGCGUUCACGUCGCAGCCCCUGUCAGAUUCUGGUGAAUCUGCGAAUUCUGCAGUAUAUCUC: the self-cleavage turned out to be 0.21.

For UAACAGGGGGCUACAGCAGAAGCGUUCACGUCGCAGCCCCUGUCAGACUCAGGUGAAUCUGUGAAUUCUGCUGUAUAUCUC, the self-cleavage stood at 0.39.

For the variant UAACAGGGGGCUACAGCAGAAGCGUUCACGUCGCAGCCCCUGUCAGAUUCUGGUGAAUCCGCGUGCUCUGCUGUAUAUCUC, the self-cleavage was found to be 0.46.

With UAACAGGGGGCUACAGCAGAAGCGUUCACGUCGCAGCCCCUGUCAGAUUCUGGGGAAUCUGCGAAUUCUGCUGUAUACCUC, the self-cleavage stood at 1.13.

For the variant UAACAGGGGGCUACAGCAGAAGCGUUCACGUCGCAGCCCCUGUCAGAUCCUGGUGAAUCUGCGAAUUCCGCUGUAUAUCUC, the self-cleavage worked out at 0.2.

As to UAACAGGGGGCUACAGCAGAAGCGCUCACGUCGCAGCCCCCGUCAGAUUCUGGUGAAUCUGCGAAUCCUGCUGUAUACCUC, the self-cleavage was 0.08.

For the variant UAACAGGGGGCUACAGCAGAAGCGUCCACGUCGCAGCCCCUGUCAGAUUCUGGUGAAUCUGCGAAUUCUGCUGUACUUCUC, the self-cleavage turned out to be 0.92.

Take UAACAGGGGGCUACAGCAGAAGCCUCCGCGUCGCGGCCCCUGUCAGAUUCUGGUGAAUCAGCGAAUUCUGCUGUAUAUCUC: the self-cleavage came to 0.05.

Take UAACAGGGGGCUACAGCAGAACCGUUCAUGUCGCGGCCCCUGUCAGAUUCUGGUGAAUCUGCGAAUUCUGCUGUAUAUCUC: the self-cleavage was 0.07.

Turning to UAACAGGGGGCUACAGCAGAAGCGUUCACAUCGCAGCACCUGUCAGAUUCUGGUGAAUCUGCGAUUUCUGCUGUAUAUCUC, the self-cleavage was determined as 0.06.

Regarding UAACAGGGGGCCCCGGCAGAAGCGUUCACGUCGCAGCCCCUGUCAGAUUCUGGUGAAUCUGCGAAUUGUGCUGUUUAUCUC, the self-cleavage was found to be 0.08.

As to UAACAGGGGGCUACAGCAGAAGCGUCCACGUCGCAGCCCCAGUCAGACUCUGGUGAGUCUGCGAAUUCUGCUGUAUAUCUC, the self-cleavage is 0.14.

As to UAACAGGGGGCCCCCGCAGAAGCGUUCACGUCGCAGCCCCUGUCAGAUUCUGGUGAGUCUGCGAAUUCUGCUGUAUAUCUC, the self-cleavage is 0.47.

As for UAACAGGGGGCCCCAGCGGAAGCGUUCACGUCGCAGCCCCCGUCAGAUUCCGGUGGAUCUGCGAAUUCUGCCGUAUAUCUC, the self-cleavage is 0.2.

For the variant UAACAGGGGGCUACAGCAGAAGCGCUCACGUCGCAGCCCCUGUCAGUUUCUGGUGGAUCUGCGAAUUCAGCUGUAUAUCUC, the self-cleavage worked out at 0.12.

As to UAACAGGGGGCCCCAGCGGAAGCGUUCACGUCGCAGCCCCUGUUAGAUUCUGGUGAAUCUGCGAAUUCUGCUGUAUAUCUC, the self-cleavage is 0.09.

As to UAACAGGGGGCUACAGCAUAAGCGUUCACGUCGCAGCCCCUGUCAGAUUCUGGUGAAUCUGUGAAUUCUGCUGUAUAUCUC, the self-cleavage was 0.34.

As to UAACAGGGGGCCCCGGCAGAAGCGUUCACGUCGCAGCCCCUGUCAGAUUCUGGUGGAUCUGCGAAUUCUGCUGUAUAUCUC, the self-cleavage was determined as 0.66.

For the variant UAACAGGGGGCCCCGGCAGAAGCGUUCACGUCGCAGCCCCGGUCAGAUUCUGGUGAAUCUGCGAAUUCUGCUGUAUAUCUC, the self-cleavage came out at 0.23.
